The results in this text go back to ChEMBL document CHEMBL4888484, “Replenishing the malaria drug discovery pipeline: Screening and hit evaluation of the MMV Hit Generation Library 1 (HGL1) against asexual blood stage Plasmodium falciparum ,using a nano luciferase reporter read-out” (2022).

Screen size: about 150,000 compounds; about 540 (0.36%) showed an effect of 50% or more. The list shows a part of the results.

This assay deals with Plasmodium falciparum. Briefly: Primary screen in NF54 nanoGlo assay, in single point, at 2uM, 72h; a lower Z score goes with more inhibition. It counts as functional, Erythrocyte. The settings on record: timepoint 72 hour.
For `Cc1sc(-c2nnc(C(=O)N3CCCC3)o2)cc1S(=O)(=O)NC1CCCCCCC1`, the % Inhibition (usually the drop in the measured response relative to a control, in per cent) is -13% and the Z score was found to be 1.81.
In the same order, the values of `O=C(c1ccc2c(c1)OCCO2)N1CCN(Cc2ccncc2)CC1` are -1% and 0.27.
In the same order, the values of `Cc1csc(CCNC(=O)c2ccco2)n1` are -14% and 1.86.
In the case of `CN(C[C@@H]1C[C@@H](O)CN1)c1ccnc(C(N)=O)c1`, the “% Inhibition” value is recorded as -14% and the Z score was 1.41.
Consider `O=C([C@@H]1CCCCn2nnnc21)N1CCC(Oc2cccc(F)c2)CC1`, for which the “% Inhibition” value is -20% and the Z score is listed as 2.09.
In the same order, the values of `COc1ccc(-c2noc(NCCN3CCN(c4cccc(Cl)c4)CC3)n2)cc1` are 9% and -1.2.
Take `CC1(C)CN(C(=O)c2cccc(CN3CCS(=O)(=O)CC3)c2)c2ccccc21`: the “% Inhibition” value is reported as -1% and the Z score was 0.15.
In the case of `COc1nc(C)ccc1OCc1nnc(C)s1`, the “% Inhibition” value was determined as 5% and the Z score is recorded as -0.61.
In the same order, the values of `CCCS(=O)(=O)NC[C@H](C)N1CCn2nc(CNC(C)=O)cc2C1` are 1% and -0.15.
In the same order, the values of `CCNC(=O)CNC(=O)Nc1cnn(C(C)C)c1` are 35% and -0.6.
In the same order, the values of `CCOC(=O)[C@H]1CC[C@@H](C)N(Cc2nonc2C)[C@H]1C` are -1% and 0.15.
As to `Cc1nsc(C(=O)NC(C)(C)c2cn(C)nn2)c1N`, the “% Inhibition” value amounted to 6% and the Z score is -0.93.
As to `O=C(N[C@H]1C[C@H]2OCC[C@@H]12)C(=O)c1ccccc1`, the “% Inhibition” value was -7% and the Z score came to 1.21.
In the same order, the values of `O=C(c1cccnn1)N1CCN(CCc2ccc(Cl)c(Cl)c2)CC1` are -6% and 0.66.
On to `CC(C)(C)c1nnc(NCc2cccnc2)nc1O`, for which the “% Inhibition” value came to 5% and the Z score is -0.8.
As to `CC1CC(C(=O)NC(COc2ccccc2F)C(C)(C)C)CCC1=O` (centres undefined), the “% Inhibition” value was -13% and the Z score was 1.36.
In the case of `CN(Cc1cc2cc(F)ccc2[nH]1)C(=O)N[C@H]1CCS(=O)(=O)C1`, the “% Inhibition” value is reported as -8% and the Z score is recorded as 1.51.
For the compound `O=C(NCCNc1cnccn1)c1cccs1`, the “% Inhibition” value is recorded as 1% and the Z score is listed as -0.17.
In the same order, the values of `Cn1cc(C(=O)N2CCC[C@H](C(=O)Cc3ccccc3)C2)c2ccccc21` are -1% and 0.12.
In the same order, the values of `O=C(NC1CCN(Cc2ccccc2)CC1)c1ccc2c(c1)N(CC(=O)N1CCCC1)C(=O)CO2` are 9% and -1.17.
As to `OCc1ccc(Cl)c(NCc2cnc(-c3ccccn3)s2)c1`, the “% Inhibition” value was found to be 8% and the Z score is on record as -0.99.
With `CCc1nc(Cn2ccnc2-c2cccc3nonc23)no1`, the “% Inhibition” value worked out at 5% and the Z score is on record as -0.84.
In the same order, the values of `N#CCCN(CCC#N)C(=O)C1CC1c1ccc(F)cc1F` (centres undefined) are -14% and 1.78.
In the same order, the values of `COc1cc2c(OC)c3ccoc3nc2cc1O` are -12% and 2.38.
As to `COc1ccc(OC)c(NC(=O)Cn2cc(-c3nc(C)no3)ccc2=O)c1`, the “% Inhibition” value is -11% and the Z score is recorded as 1.96.
In the same order, the values of `CCn1c(C(=O)NC2CC2)cc2cc(S(=O)(=O)N(C)C)ccc21` are -8% and 1.37.
For `CC[C@@](C)(CO)NC(=O)C1=CCCCO1`, the “% Inhibition” value is on record as -4% and the Z score came out at 0.57.
In the same order, the values of `CCOCCC(=O)N[C@H]1CCC(=O)N(C)C1` are -10% and 1.46.
In the same order, the values of `Cc1noc(C)c1-c1nc2cc3c(cc2[nH]1)OCCCO3` are -8% and 1.07.
As to `COc1ccc([C@H]2OCC[C@@H]2NC(=O)c2c(F)cccc2F)cn1`, the “% Inhibition” value is on record as -6% and the Z score came to 0.98.
In the same order, the values of `O=C1CCC(C(=O)NC(c2ccc(Cl)cc2)C2CCCC2)N1` (centres undefined) are -5% and 1.03.
In the same order, the values of `Cc1ccc(NCC(=O)n2c(C)c(C)c3ccccc32)c(C)c1` are 6% and -1.22.
With `Cc1ccc(S(=O)(=O)Nc2nc(C)cc(=O)[nH]2)cc1`, the “% Inhibition” value is recorded as -15% and the Z score was 1.95.
As for `CCn1cc(-c2nc(C)c(C(=O)NCc3cc(F)cc(F)c3)s2)c2cccnc21`, the “% Inhibition” value was -4% and the Z score is recorded as 0.67.
In the same order, the values of `C[C@H](NCCN1CCCC1=O)c1ccc(S(C)(=O)=O)c(F)c1` are -10% and 1.1.
In the same order, the values of `Cc1cc(OCc2nc(CC(=O)N[C@@H](C)c3ccccc3)cs2)ccc1Cl` are -2% and 0.35.
With `COC[C@@H]1CCC[C@@H]1NC(=O)Cc1cccnc1`, the “% Inhibition” value is reported as -7% and the Z score worked out at 1.13.
In the same order, the values of `Cc1ccc(S(=O)(=O)N2CCC[C@H]2c2ncc[nH]2)c(Cl)c1` are -8% and 1.06.
In the same order, the values of `CCc1ncc(-c2nc(-c3ccncc3)no2)cn1` are -14% and 1.69.
In the same order, the values of `Cc1ccc(-n2nc3c(N4CCC[C@H](C(=O)NCCN5CCOCC5)C4)nnc(C)c3c2C)cc1` are 0% and 0.05.
Take `COC(=O)[C@H]1CCc2cnn(Cc3nnc(-c4cccc(OC)c4)o3)c2C1`: the “% Inhibition” value is reported as -16% and the Z score was 2.5.
In the case of `CC(C)(C)n1ncc2c(-n3cnc(C(N)=O)c3)ncnc21`, the “% Inhibition” value is -1% and the Z score was 0.13.
In the same order, the values of `CCn1nccc1-c1cccc(-c2noc(-c3ccccn3)n2)c1` are 10% and -1.17.
In the same order, the values of `CCN(C(=O)OC(C)(C)C)c1ccncc1` are 0% and 0.02.
In the same order, the values of `Cc1ccc(C(C)NC(C)C(=O)NC(=O)NCC(F)(F)F)o1` (centres undefined) are -16% and 2.02.
For `CC(C)CCc1noc(CN2C(=O)c3ccccc3C2=O)n1`, the “% Inhibition” value is -4% and the Z score is recorded as 0.56.
In the case of `CC(NC(=O)NC1CCCCC1CO)C(C)(C)CN(C)C` (centres undefined), the “% Inhibition” value is recorded as -10% and the Z score amounted to 1.24.
In the same order, the values of `CN(CCn1cnc2ccccc2c1=O)Cc1ccccc1Br` are -20% and 2.01.
Regarding `COC(=O)[C@@H](C)CNC(=O)Nc1cc(F)c(F)cc1Cl`, the “% Inhibition” value was 21% and the Z score was -2.42.
In the same order, the values of `CCCCNC(=O)N1CC(CO)CC1CO` (centres undefined) are 3% and -0.73.
In the same order, the values of `COC(=O)c1ccc(N2CCC(F)(c3cccc(OC)c3)CC2)nn1` are -4% and 0.64.
For `Cc1ccoc1C(=O)NC1CCN(CC(=O)Nc2ccncc2)CC1`, the “% Inhibition” value stood at 2% and the Z score is reported as -0.25.
Regarding `Cc1ccccc1C(=O)NC[C@@H](c1ccc(N(C)C)cc1)N1CCOCC1`, the “% Inhibition” value was 10% and the Z score is -1.02.
For `CN(C)C[C@H]1C[C@H](CO)CN(C(=O)c2ccccc2OCc2ccccc2)C1`, the “% Inhibition” value is -1% and the Z score is reported as 0.16.
Regarding `O=C(NCc1ncc[nH]1)[C@H]1CCC(=O)N(C2CCCCCC2)C1`, the “% Inhibition” value is -14% and the Z score is recorded as 1.3.
For `Cc1[nH]nc(C(=O)NC2CC(C)(F)C2)c1C` (centres undefined), the “% Inhibition” value is recorded as -4% and the Z score is reported as 0.41.
In the same order, the values of `Cc1oc(C(C)(C)C)cc1-c1nc([C@H]2CCC(=O)NC2)no1` are -2% and 0.32.
`Cc1c(C#N)nn(-c2cccnc2)c1NC(=O)c1ccc(Cl)c(Cl)c1`: the “% Inhibition” value is given as -8% and the Z score stood at 0.85.
In the same order, the values of `COc1ccc([C@H]2CC(=O)Nc3c2cnn3Cc2cccs2)cc1` are -3% and 0.35.
`COc1ccc(CNC(=O)C2=NO[C@@H](Cc3nc4ccccc4o3)C2)cc1`: the “% Inhibition” value is -11% and the Z score is reported as 1.2.
In the same order, the values of `O=C1CCC2(CCN(Cc3cc(Cl)ccc3F)CC2)CN1C1CC1` are -5% and 0.98.
Regarding `O=C(NC[C@H](O)CN1CCCC1=O)c1cc(-c2ccccc2)nc2ccccc12`, the “% Inhibition” value is -12% and the Z score was determined as 1.82.
In the same order, the values of `Cc1cccc(Nc2nc3c(s2)CCC3)c1` are 32% and -3.57.
In the same order, the values of `C=CCn1c(=O)c2sc(N(CC)CC)nc2n(CC(=O)Nc2ccc(C)c(F)c2)c1=O` are -9% and 0.79.
In the same order, the values of `Cc1nc2ccc(F)cc2c(=O)n1CC(=O)N1CCN(c2ccccn2)CC1` are -4% and 0.57.
Take `CCC(CC)N(CN1C(=O)NC2(CCCCC2)C1=O)C1CC1`: the “% Inhibition” value came to 3% and the Z score was -0.62.
Regarding `CC(NC(=O)CCC1CCCCC1)C1CCCO1` (centres undefined), the “% Inhibition” value is reported as -9% and the Z score is on record as 0.79.
On to `CCCN1CCN(C(=O)c2ccnc(N3CCN[C@H](c4ccccc4)C3)c2)CC1`, for which the “% Inhibition” value is -13% and the Z score was 1.36.
In the same order, the values of `CN(Cc1ccccc1)c1cnn(CCC(N)=O)c(=O)c1` are -11% and 1.
In the same order, the values of `CCc1nc(N(CCC(=O)N2CCOCC2)Cc2ccco2)c2cc(Cl)cc(Cl)c2n1` are -5% and 0.74.
In the same order, the values of `Cc1cccc(NC(=O)NCC2(CS(C)(=O)=O)CC2)c1Cl` are -1% and 0.12.
Turning to `Cc1ccc(S(=O)(=O)N2CC[C@H](n3ccnn3)C2)s1`, the “% Inhibition” value is recorded as -19% and the Z score is recorded as 3.27.
In the same order, the values of `COCCCC1(CNCc2noc3c2CCCC3)CCC1` are 0% and 0.07.
In the same order, the values of `Cc1ccccc1-c1noc(-c2cc3n(n2)C[C@@H](c2ccccc2)OC3)n1` are -6% and 0.72.
On to `C[C@H]1CCCN(CCNS(=O)(=O)Cc2cc(Cl)ccc2F)C1`, for which the “% Inhibition” value is on record as -10% and the Z score turned out to be 1.42.
With `O=C(O)C1(n2cnnn2)CCC(c2ccccc2)CC1` (centres undefined), the “% Inhibition” value is reported as -2% and the Z score is 0.25.
As to `O=C(Cc1nnc(-c2ccccc2)o1)NCCC1=CCCCC1`, the “% Inhibition” value amounted to 0% and the Z score is 0.01.
In the same order, the values of `CCn1nc(N2CCC[C@H](NC(=O)c3cn(C)nc3C)C2)ccc1=O` are -10% and 1.32.
As for `CCC(c1ccc(F)cc1)c1nnc(C(CC)c2ccc(F)cc2)o1` (centres undefined), the “% Inhibition” value is -6% and the Z score came to 0.72.
Consider `Cc1ccc(-c2nn(C)c(=O)c3c2CCCC3)cc1S(=O)(=O)NC[C@H]1CCCO1`, for which the “% Inhibition” value is reported as -16% and the Z score is 2.48.
Regarding `O=C(O)CC1(CN2C3CCC2CC(O)(Cc2ccc(F)cc2F)C3)CC1` (centres undefined), the “% Inhibition” value is listed as -8% and the Z score was found to be 1.59.
In the same order, the values of `O=C1c2ccccc2C(=O)N1CCN1C(=O)COc2ccccc21` are -4% and 0.53.
In the same order, the values of `Nc1ccccc1-c1nc(-c2c[nH]c3ccccc23)cs1` are -6% and 0.85.
In the same order, the values of `CCc1onc(C)c1NC(=O)N[C@@H]1c2ccccc2OC[C@@H]1CO` are -3% and 0.4.
For the compound `COc1cc(Cl)cc(CN2CC[C@H](N)C2)c1OC(C)C`, the “% Inhibition” value is listed as -2% and the Z score is 0.28.
In the case of `O=C(O)C[C@H]1CNCCN(C(=O)c2ccccc2-c2ccccc2)C1`, the “% Inhibition” value is reported as -11% and the Z score worked out at 1.
On to `CC1CNCCN1C(=O)C1COc2ccccc21` (centres undefined), for which the “% Inhibition” value was -22% and the Z score was determined as 3.19.
